According to PubChem BioAssay AID686979 (National Center for Advancing Translational Sciences (NCATS), 2013):
Out of some 420,000 compounds screened, about 50,000 (12%) were called active. The inconclusive results got no clear call from the source; some entries with a clear call stand among them for comparison. Calls come from the whole dose curve; as a rule, active = well fitted inhibition curve with a large enough effect; inconclusive = small, poorly fitted or top-dose-only effect; inactive = flat fitted curve, though single readings scatter. No potency is given beside an inconclusive call; the fits are too rough.
% is set by controls: 0 for no effect and ±100 for the full control effect; potency is the fitted concentration of half-maximal effect; tags give direction and shape of the fitted curve.

Assay: qHTS for Inhibitors of human tyrosyl-DNA phosphodiesterase 1 (TDP1): qHTS in cells in presence of CPT; note: nearly all actives have a fitted effect of over 55% in size
Settings: chicken DT40 Tdp1-/-;hTDP1 cells + 20 nM CPT, ATP luminescence, 48 h; activity change, negative = growth inhibition: at 46.2 µM (top of the series) unless noted
Summary of the method: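 Cell growth measured by CellTiter-Glo luminescence after a minimum 48 h, 37 C compound exposure with 20 nM CPT in Tdp1-knockout DT40 cells stably expressing hTDP1, seeded 400/well; qHTS titration format.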
For Cc1ccc(C)c(NC(=S)N(CCc2nc3cc(C)c(C)cc3[nH]2)Cc2cccnc2)c1, the Potency was inconclusive [inhibitor, partial curve, poor fit]. With CCCCN(C(=O)c1ccc(S(=O)(=O)N(C)C)cc1)c1nc2ccccc2s1 the Potency was “inactive”. For O=C1c2ccccc2NC(c2ccc(Br)s2)N1O (stereo not drawn), the Potency was active: 10.3 µM. With Cc1ccc(Cc2cnc(NC(=O)c3cccs3)s2)cc1 the Potency was inconclusive [inhibitor, partial curve, poor fit]. For Cc1cc2nc(C)c(Cc3ccccc3)c(=O)n2[nH]1, the Potency was “inactive”. For Cc1cccc(S(=O)(=O)CC(=O)Nc2nc(-c3ccccc3)cs2)c1, the Potency was inconclusive [inhibitor, single point]. In the case of O=C(Nc1cc(S(=O)(=O)N2CCOCC2)ccc1N1CCOCC1)c1c(F)cccc1Cl, the Potency is reported as “inactive”. With COC(=O)c1ccc(C(=O)OC)c(NC(=S)N2CCN(c3ccccc3)CC2)c1 the Potency was inconclusive [inhibitor, partial curve]. With COc1ccc(Cl)cc1NC(=O)CN(C)CC(=O)Nc1ccc(Br)cc1 the Potency was inconclusive [inhibitor, single point]. For CCCCN(C(=O)CCC(=O)Nc1cc(C)on1)C(C(=O)NC1CCCC1)c1cccc(OC)c1 (stereo not drawn), the Potency was active: 8.2 µM. With CCOc1c(Br)cc(CNc2ncn[nH]2)cc1OC the Potency was “inactive”. With Cc1ccc2sc(C)[n+](CCO)c2c1 the Potency was inconclusive [inhibitor, single point]. In the case of CC(=O)N(CC(=O)O)c1ccccc1C(=O)O, the Potency is reported as “inactive”. For CC(C)(O)[C@H]1Cc2cc3ccc(=O)oc3cc2O1, the Potency was “inactive”. In the case of Cc1cc(OCC(=O)N2CCCCCC2)ccc1[N+](=O)[O-], the Potency is reported as inconclusive [inhibitor, single point]. For CCN1C(=O)/C(=C/c2nc3ccccc3c(=O)[nH]2)c2ccccc21, the Potency was inconclusive [inhibitor, single point]. In the case of COc1ccccc1N(CC(=O)Nc1ccc(C(F)(F)F)cc1)S(C)(=O)=O, the Potency is reported as “inactive”. In the case of COc1ccc(C(=O)C(O)C(c2ccc(C)cc2)N2CCOCC2)cc1OC (stereo not drawn), the Potency is reported as “inactive”. For Cc1ccc(C)c(CN2C(=O)c3ccccc3S(=O)(=O)c3ccc(C(=O)NCCCN4CCCC(C)C4)cc32)c1 (stereo not drawn), the Potency was inconclusive [inhibitor, single point]. For COCc1cc(C)nc(SCC(=O)Nc2cccc3cccnc23)c1C#N, the Potency was inconclusive [inhibitor, partial curve]. In the case of CCOc1cc(/C=N/Nc2nncc(-c3ccccc3)n2)ccc1O, the Potency is reported as inconclusive [inhibitor, single point]. With Cc1cccc2c1-c1sc(C(=O)N3CCCCC3)cc1CO2 the Potency was inconclusive [inhibitor, single point]. With Cc1nc2c(-c3ccc(F)cc3)cnn2c(N)c1-c1ccc(F)cc1 the Potency was active: 20.6 µM. With Cn1nc(-c2ccccc2)c2cc([N+](=O)[O-])ccc21 the Potency was “inactive”. For CC1CCN(C(=O)Cn2ncc3c([nH]c4ccccc43)c2=O)CC1, the Potency was inconclusive [inhibitor, single point]. For COc1cc2c(C(=O)NCCN(C)C)cn(CC(C)C)c(=O)c2cc1OC, the Potency was “inactive”. With CC(C)c1ccc(CN(C(=O)c2ccco2)C2CCS(=O)(=O)C2)cc1 (stereo not drawn) the Potency was “inactive”. In the case of COC(=O)c1cc2sccc2n1Cc1nc(-c2ccc(OC)cc2)oc1C, the activity change, negative = growth inhibition is reported as inconclusive: -33.9% [inhibitor]. For CCC(CC)C(=O)c1c[nH]c(C(=O)N2CCN(c3ccc(OC)cc3)CC2)c1, the Potency was “inactive”. For CNC(=S)N/N=C(\C)c1ccc(Cl)s1, the Potency was active: 2.91 µM. In the case of Cc1cccc(/C=C/c2cccs2)n1, the Potency is reported as active: 1.12 µM. In the case of CCC(CC)c1nn2c(=O)cc(COc3ccc(NC(=O)c4ccc(C)cc4)cc3)nc2s1, the Potency is reported as inconclusive [inhibitor, single point]. In the case of Cc1c(C(=O)Nc2ccc(C(C)C)cc2)sc2nc3n(c(=O)c12)CCC3, the Potency is reported as active: 16.4 µM. In the case of CC(C)C(c1nnnn1Cc1cccs1)N1CCN(c2ccccc2)CC1 (stereo not drawn), the Potency is reported as inconclusive [inhibitor, partial curve]. In the case of CCCOc1ccc(-c2nc(C#N)c(N3CCN(CC)CC3)o2)cc1, the Potency is reported as inconclusive [inhibitor, single point]. In the case of Cc1cc(N2CCN(CC(O)C(F)(F)F)CC2)c2ccccc2n1 (stereo not drawn), the Potency is reported as inconclusive [inhibitor, single point]. For COc1ccc(NC(=O)Cc2ccsc2)cc1S(=O)(=O)N1CCOCC1, the Potency was “inactive”. For COc1ccc(-c2nc(CS(=O)CC(=O)NCc3ccc(F)cc3)c(C)o2)cc1 (stereo not drawn), the activity change, negative = growth inhibition was inconclusive: -33.8% [inhibitor]. With CCN(C(=O)COC(=O)/C=C/c1nc2ccccc2s1)C1CCS(=O)(=O)C1 (stereo not drawn) the Potency was inconclusive [inhibitor, single point]. With COc1ccccc1OCC(=O)Nc1nc2c(s1)CCCC2 the Potency was inconclusive [inhibitor, partial curve]. For O=C(CNC(=O)c1ccco1)NCC(=O)OCC(=O)c1ccc(Cl)c([N+](=O)[O-])c1, the Potency was inconclusive [inhibitor, single point]. With CC(=O)c1sc(NCCOc2ccc(C)cc2)nc1C the Potency was inconclusive [inhibitor, single point]. For CCOC1=C2CN(S(=O)(=O)c3ccc(C)cc3)[C@H](c3cccc(Cl)c3)C[C@@H]2N(S(=O)(=O)c2ccccc2[N+](=O)[O-])[C@H](c2ccccc2)C1, the Potency was “inactive”. With Cc1ccc(C(C(=O)NC2CCCC2)N(Cc2ccc3c(c2)OCO3)C(=O)Cc2cccs2)cc1 (stereo not drawn) the Potency was inconclusive [inhibitor, single point]. In the case of O=C(NCCN1CCN(Cc2ccc([N+](=O)[O-])cc2)CC1)C(=O)Nc1ccccc1, the Potency is reported as “inactive”. For CCN(C(=O)c1cc2c(s1)-c1ccccc1S(=O)(=O)C2)c1cc(OC)ccc1OC, the Potency was “inactive”. In the case of COc1ccc(NC(=O)CC2C(=O)N(c3cccc(C)c3)C(=O)N2Cc2cccnc2)cc1 (stereo not drawn), the Potency is reported as inconclusive [inhibitor, single point]. In the case of CCCCCCN1CCN(C2CN(Cc3cn(Cc4ccc(C)cc4)nn3)S(=O)(=O)C2)CC1 (stereo not drawn), the Potency is reported as inconclusive [inhibitor, single point]. With CC(C)(C)c1ccc(OCC(O)CS(=O)(=O)c2ccccn2)cc1 (stereo not drawn) the Potency was inconclusive [inhibitor, full curve]. For O=CN1CCN(C(=S)NC(=O)c2ccc(Cl)cc2)CC1, the activity change, negative = growth inhibition was inconclusive: -14.9% [inhibitor]. For O=C(Cn1c(-c2ccco2)nc2ccccc21)N1CCCCC1, the Potency was “inactive”. In the case of CSc1ccccc1C(=O)N1CCCC(CCC(=O)NCc2ccc(F)c(F)c2)C1 (stereo not drawn), the Potency is reported as inconclusive [inhibitor, single point]. For COc1ccc(CCNC(=O)CCCn2c(=O)c3cccn3c3ccccc32)cc1OC, the Potency was active: 16.4 µM. In the case of Cc1c(CC(=O)NCC(C)C)c(=O)oc2cc3c(cc12)CCC(C)(C)O3, the Potency is reported as active: 16.4 µM. In the case of C(=C\c1ccccc1)/CN1CCN(C(c2ccccc2)c2nnnn2-c2ccc3c(c2)OCCO3)CC1 (stereo not drawn), the Potency is reported as inconclusive [inhibitor, single point]. In the case of Cc1ccc(C(=O)Nc2cc(C(C)C)c(O)c(C(C)C)c2)cc1, the Potency is reported as inconclusive [inhibitor, single point]. With Cc1c(C(=O)N2CCCCC2)c(S(=O)(=O)Nc2cccc(Br)c2)c(C)n1C the Potency was inconclusive [inhibitor, partial curve]. In the case of Cc1cc2c(cc1NC(=O)c1ccccc1C)n(C)c(=O)c(=O)n2C, the Potency is reported as “inactive”. For COc1ccccc1N1CCN(C(=O)C2CCN(S(=O)(=O)Cc3ccccc3)CC2)CC1, the Potency was inconclusive [inhibitor, single point]. In the case of O=C(N/N=C/c1cc(Cl)ccc1O)c1cccnc1, the Potency is reported as active: 0.92 µM. In the case of CCC(Cc1ccccc1)NC(=O)CN1C(=O)COc2ccc(S(=O)(=O)N3CCCCCC3)cc21 (stereo not drawn), the Potency is reported as inconclusive [inhibitor, partial curve]. For Cc1ccccc1N(CC(=O)N/N=C/c1ccc(N(C)C)cc1)C(=O)c1ccccc1, the Potency was inconclusive [inhibitor, partial curve]. For COc1cccc(NC(=O)CN(C)C(=O)c2ccc(OCc3ccccc3)c(OC)c2)c1, the Potency was “inactive”. For CC(=O)N1CCc2cc(Br)cc(S(=O)(=O)CCC(=O)N3CCN(c4ccccn4)CC3)c21, the Potency was “inactive”. For Cc1ccc(C)c(CN2C(=O)C3(OCCCO3)c3ccccc32)c1, the Potency was inconclusive [inhibitor, single point]. With O=C(Cc1cccs1)N/N=C/C=C/c1ccccc1[N+](=O)[O-] the Potency was “inactive”. With CCCc1[nH]nc2c1C(/C(C)=C/c1ccccc1)C(C#N)=C(N)O2 (stereo not drawn) the Potency was inconclusive [inhibitor, partial curve, poor fit]. In the case of O=[N+]([O-])c1ccc(C[n+]2ccccc2)cc1, the Potency is reported as “inactive”. With O=C(CSc1n[nH]c(-c2ccco2)n1)Nc1sc2c(c1C(=O)Nc1ccccc1)CCCC2 the Potency was inconclusive [inhibitor, single point]. For CCCn1nnnc1SCC(=O)Nc1cccc(NC(=O)c2ccco2)c1, the Potency was “inactive”. For O=C(NCCN1CCOCC1)c1noc2c1CCc1ccccc1-2, the Potency was “inactive”. For CCOC(=O)N1CCN(C(=O)CN(Cc2ccc(Cl)cc2)S(=O)(=O)c2ccccc2)CC1, the Potency was inconclusive [inhibitor, partial curve]. In the case of Cc1ccc(/C=C2\SC(=S)N(CCCC(=O)Nc3ccc(O)cc3)C2=O)cc1, the Potency is reported as “inactive”.
